Each structure is given as a SMILES string. Structures can show the parent of a compound that is named as a salt. The list shows a part of the results. Repeats are few or missing, and single values can be far off.

This test deals with Ov4Carbo. Description: log2 surviving fraction (library drug vs vehicle, or drug + carboplatin vs carboplatin alone; relative to plate median); ovarian cancer lines: OVCAR4 is platinum-sensitive and Ov4Carbo platinum-resistant; higher = more cell survival. The note with it: library drug concentration 10 µM; 7 days; carboplatin co-treatment 5 µM.
With `CC(=O)OCC(=O)[C@@]1(O)[C@H](C)C[C@H]2[C@@H]3CCC4=CC(=O)C=C[C@]4(C)[C@@]3(F)[C@@H](O)C[C@@]21C` [Dexamethasone acetate], the log2 surviving fraction stood at 0.734.
On to `CC1C=CC=CCCC=CC=CC=CC=CC(OC2OC(C)C(O)C(N)C2O)CC2OC(O)(CC(O)C(O)CCC(O)CC(O)CC(O)CC(=O)OC(C)C(C)C1O)CC(O)C2C(=O)O` (stereo not given) [Nystatin (Mycostatin)], for which the log2 surviving fraction is -2.07.
For the compound `c1ccc(CN(CC2=NCCN2)c2ccccc2)cc1` [Antazoline HCl], the log2 surviving fraction was -0.714.
Consider `Nc1cc(N2CCCCC2)nc(N)[n+]1[O-]` [Minoxidil], for which the log2 surviving fraction worked out at 0.236.
With `CCCCNc1cc(C(=O)O)cc(S(N)(=O)=O)c1Oc1ccccc1` [Bumetanide] the figure was 0.813; with `CN1CCc2cccc3c2[C@H]1Cc1ccc(O)c(O)c1-3` [R-(-)-Apomorphine HCl Hemihydrate], -0.348; with `O=c1[nH]c(=O)n([C@H]2C[C@H](O)[C@@H](CO)O2)cc1I` [Idoxuridine], -1.93.
With `C[C@]12CC[C@H](O)CC1=CC[C@@H]1[C@@H]2CC[C@]2(C)C(=O)CC[C@@H]12` [Dehydroepiandrosterone (DHEA)], the log2 surviving fraction came to 0.0838.
With `O=C([O-])C(O)[C@H](O)[C@@H](O)[C@H](O)[C@H](O)CO.O=C([O-])C(O)[C@H](O)[C@@H](O)[C@H](O)[C@H](O)CO.[Ca+2]` (stereo not given in full) [Calcium Gluceptate] the figure was 0.964; with `CC(=O)Nc1cc([As](=O)(O)O)ccc1O` [Acetarsone], -0.637.
With `CCn1cc(C(=O)O)c(=O)c2cc(F)c(N3CCNC(C)C3)c(F)c21` (stereo not given) [Lomefloxacin hydrochloride (Maxaquin)], the log2 surviving fraction came out at 0.348.
Consider `COc1ccccc1OCC(O)CN1CCN(CC(=O)Nc2c(C)cccc2C)CC1` (stereo not given) [Ranolazine dihydrochloride], for which the log2 surviving fraction amounted to 0.98.
As for `CC1=NN(c2ccc(C)c(C)c2)C(=O)/C1=N\Nc1cccc(-c2cccc(C(=O)O)c2)c1O`, the log2 surviving fraction was -3.32.
With `CC(CCc1ccc(O)cc1)NCC(O)c1ccc(O)cc1` (stereo not given) [Ractopamine HCl] the figure was -0.768.
`N#Cc1c(N(CC(=O)O)CC(=O)O)sc(C(=O)O)c1CC(=O)O` [Strontium ranelate (Protelos)]: the log2 surviving fraction worked out at 1.13.
With `CO[C@H]1/C=C/O[C@@]2(C)Oc3c(C)c(O)c4c(O)c(c(/C=N/N5CCN(C6CCCC6)CC5)c(O)c4c3C2=O)NC(=O)/C(C)=C\C=C\[C@H](C)[C@H](O)[C@@H](C)[C@@H](O)[C@@H](C)[C@H](OC(C)=O)[C@@H]1C` [Rifapentine (Priftin)] the figure was -1.14.
For the compound `COc1cc(/C=C/C(=O)CC(=O)/C=C/c2ccc(O)c(OC)c2)ccc1O` [Curcumin], the log2 surviving fraction is -1.61.
As to `CC1(C)S[C@@H]2[C@H](NC(=O)Cc3ccccc3)C(=O)N2[C@H]1C(=O)O` [Benzylpenicillin sodium], the log2 surviving fraction was 1.12.
For `C=CCNC(N)=S` [Allylthiourea], the log2 surviving fraction turned out to be 1.21.
With `CCN(CC)CCOC(=O)C1(C2CCCCC2)CCCCC1` [Dicyclomine HCl], the log2 surviving fraction is 0.746.
As to `Cn1c([N+](=O)[O-])cnc1COC(N)=O` [Ronidazole], the log2 surviving fraction is -0.557.
With `CCCCOc1cc(C(=O)OCCN(CC)CC)ccc1N` [Oxybuprocaine HCl] the figure was 0.617; with `NC(=O)OCC(COC(N)=O)c1ccccc1` [Felbamate], 0.637.
On to `CC[C@H]1CN2CCc3cc(OC)c(OC)cc3[C@@H]2C[C@@H]1C[C@H]1NCCc2cc(OC)c(OC)cc21` [Emetine], for which the log2 surviving fraction is -7.16.
As for `Cc1ccccc1N1C(=O)c2cc(S(N)(=O)=O)c(Cl)cc2NC1C` (stereo not given) [Metolazone (Zaroxolyn)], the log2 surviving fraction was found to be 0.369.

The record behind these values is the supplement of paper PMC8047034.
